Reference: the supplement of paper PMC4604168 (melanoma cell lines)
The other results are listed elsewhere or left out. Repeats are few or missing, and single values can be far off.

Each molecule was assayed on 501Mel (assay: cell count relative to DMSO control; melanoma cells; higher = more viable cells). Conditions: library dose: standard library concentration; 72 h.
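Also: cells treated in 1,536-well plates, then fixed and DAPI-stained, with nuclei counted from automated high-throughput microscope images.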

SMILES | cell count
Cc1cc(Nc2cc(N3CCN(C)CC3)nc(/C=C/c3ccccc3)n2)n[nH]1 + N#Cc1c(O)c2c(-c3ccc(-c4ccccc4O)cc3)csc2[nH]c1=O [A769662] (first compound 0.2 µM, partner dose 10 µM) | 110%
CC(C)C[C@H](NC(=O)[C@H](Cc1ccccc1)NC(=O)c1cnccn1)B(O)O [Bortezomib] + O=S(=O)(c1ccccc1)N(CC(F)(F)F)c1ccc(C(O)(C(F)(F)F)C(F)(F)F)cc1 [T0901317] (first compound 0.005 µM, partner dose 7 µM) | 6.89%
Cn1c(=O)n(-c2ccc(C(C)(C)C#N)cc2)c2c3cc(-c4cnc5ccccc5c4)ccc3ncc21 + CC(C)CCN1c2nc(Nc3cc(F)c(O)c(F)c3)ncc2N(C)C(=O)C1C [BID1870] (first compound 0.02 µM, partner dose 1 µM) | 73.6%
Cn1c(=O)n(-c2ccc(C(C)(C)C#N)cc2)c2c3cc(-c4cnc5ccccc5c4)ccc3ncc21 + COC(=O)c1sccc1S(=O)(=O)Nc1ccc(Nc2ccccc2)cc1OC [GSK0660] (first compound 0.02 µM, partner dose 5 µM) | 84.9%
CC(C)C[C@H](NC(=O)[C@H](Cc1ccccc1)NC(=O)c1cnccn1)B(O)O [Bortezomib] + Oc1cc(-c2nc(-c3ccccc3)[nH]c2-c2ccncc2)ccc1Cl [L779450] (first compound 0.005 µM, partner dose 1 µM) | 7.01%
Cc1cn(-c2cc(NC(=O)c3ccc(C)c(Nc4nccc(-c5cccnc5)n4)c3)cc(C(F)(F)F)c2)cn1 [nilotinib] + CCN(CC)CCCCNc1ncc2cc(-c3cc(OC)cc(OC)c3)c(NC(=O)NC(C)(C)C)nc2n1 [PD173074] (first compound 1 µM, partner dose 0.5 µM) | 89.9%
CC(C)C[C@H](NC(=O)[C@H](Cc1ccccc1)NC(=O)c1cnccn1)B(O)O [Bortezomib] + CCCCCCCCCCCC1=C(O)C(=O)C=C(O)C1=O [Embelin] (first compound 0.005 µM, partner dose 6 µM) | 107%
Cn1c(=O)n(-c2ccc(C(C)(C)C#N)cc2)c2c3cc(-c4cnc5ccccc5c4)ccc3ncc21 + N#Cc1c(O)c2c(-c3ccc(-c4ccccc4O)cc3)csc2[nH]c1=O [A769662] (first compound 0.02 µM, partner dose 10 µM) | 67.2%
Cc1cn(-c2cc(NC(=O)c3ccc(C)c(Nc4nccc(-c5cccnc5)n4)c3)cc(C(F)(F)F)c2)cn1 [nilotinib] + COc1ccc(-c2ccc3c(N4CCOCC4)nc(N4C[C@@H](C)O[C@@H](C)C4)nc3n2)cc1CO [KU0063794] (first compound 1 µM, partner dose 0.1 µM) | 98.5%
COc1ccc(C2=N[C@@H](c3ccc(Cl)cc3)[C@@H](c3ccc(Cl)cc3)N2C(=O)N2CCNC(=O)C2)c(OC(C)C)c1 [Nutlin-3] + COc1ccc2c(c1)CCC1C2CCC2(C)C(NCCCCCCN3C(=O)C=CC3=O)CCC12 [U73122] (first compound 0.5 µM, partner dose 2 µM) | 116%
COc1ccc(C2=N[C@@H](c3ccc(Cl)cc3)[C@@H](c3ccc(Cl)cc3)N2C(=O)N2CCNC(=O)C2)c(OC(C)C)c1 [Nutlin-3] + O=C(Nc1ccccc1)c1cc([N+](=O)[O-])ccc1Cl [GW9662] (first compound 0.5 µM, partner dose 10 µM) | 71.6%
Cn1c(=O)n(-c2ccc(C(C)(C)C#N)cc2)c2c3cc(-c4cnc5ccccc5c4)ccc3ncc21 + COc1cc(N2CCC(N3CCN(C)CC3)CC2)ccc1Nc1ncc(Cl)c(Nc2ccccc2S(=O)(=O)C(C)C)n1 [NVP-TAE684] (first compound 0.02 µM, partner dose 0.4 µM) | 52.2%
CC(C)C[C@H](NC(=O)[C@H](Cc1ccccc1)NC(=O)c1cnccn1)B(O)O [Bortezomib] + COc1cc2ncnc(Nc3ccc(Oc4ccccc4)cc3)c2cc1OC [SrcI1] (first compound 0.005 µM, partner dose 10 µM) | 14.5%
Cn1c(=O)n(-c2ccc(C(C)(C)C#N)cc2)c2c3cc(-c4cnc5ccccc5c4)ccc3ncc21 + CCc1ccc(CCOc2ccc(CC3SC(=O)NC3=O)cc2)nc1 [pioglitazone] (first compound 0.02 µM, partner dose 10 µM) | 86.3%
Cc1cc(Nc2cc(N3CCN(C)CC3)nc(/C=C/c3ccccc3)n2)n[nH]1 + COc1ccc2c(c1)CCC1C2CCC2(C)C(NCCCCCCN3C(=O)C=CC3=O)CCC12 [U73122] (first compound 0.2 µM, partner dose 2 µM) | 81.1%
COc1ccc(C2=N[C@@H](c3ccc(Cl)cc3)[C@@H](c3ccc(Cl)cc3)N2C(=O)N2CCNC(=O)C2)c(OC(C)C)c1 [Nutlin-3] + O=C(O)C(=O)Nc1sc2c(c1C(=O)O)CCNC2 [TCS401] (first compound 0.5 µM, partner dose 8.33333 µM) | 73.2%
Cc1cn(-c2cc(NC(=O)c3ccc(C)c(Nc4nccc(-c5cccnc5)n4)c3)cc(C(F)(F)F)c2)cn1 [nilotinib] + COc1cc(N2CCC(N3CCN(C)CC3)CC2)ccc1Nc1ncc(Cl)c(Nc2ccccc2S(=O)(=O)C(C)C)n1 [NVP-TAE684] (first compound 1 µM, partner dose 0.4 µM) | 79.9%
Cc1cc(Nc2cc(N3CCN(C)CC3)nc(/C=C/c3ccccc3)n2)n[nH]1 + Oc1cc(-c2nc(-c3ccccc3)[nH]c2-c2ccncc2)ccc1Cl [L779450] (first compound 0.2 µM, partner dose 1 µM) | 68.4%
Cn1c(=O)n(-c2ccc(C(C)(C)C#N)cc2)c2c3cc(-c4cnc5ccccc5c4)ccc3ncc21 + Cc1cc([N+](=O)[O-])ccc1NS(=O)(=O)c1cc(Cl)ccc1Cl [FH535] (first compound 0.02 µM, partner dose 5 µM) | 55.4%
Cn1c(=O)n(-c2ccc(C(C)(C)C#N)cc2)c2c3cc(-c4cnc5ccccc5c4)ccc3ncc21 + O=c1cc(-c2cccc3c2Sc2ccccc2S3)oc(N2CCOCC2)c1 [KU55933] (first compound 0.02 µM, partner dose 5 µM) | 69.5%
COc1ccc(C2=N[C@@H](c3ccc(Cl)cc3)[C@@H](c3ccc(Cl)cc3)N2C(=O)N2CCNC(=O)C2)c(OC(C)C)c1 [Nutlin-3] + COc1ccc(COc2ccc(Cc3cnc(N)nc3N)cc2OC)cc1 [GW2580] (first compound 0.5 µM, partner dose 5 µM) | 70.4%
CC(C)C[C@H](NC(=O)[C@H](Cc1ccccc1)NC(=O)c1cnccn1)B(O)O [Bortezomib] + COc1ccc(-c2ccc3c(N4CCOCC4)nc(N4C[C@@H](C)O[C@@H](C)C4)nc3n2)cc1CO [KU0063794] (first compound 0.005 µM, partner dose 0.1 µM) | 25.1%
Cn1c(=O)n(-c2ccc(C(C)(C)C#N)cc2)c2c3cc(-c4cnc5ccccc5c4)ccc3ncc21 + O=C1NC(=O)/C(=C/c2ccc(-c3ccc(F)cc3O)o2)S1 [AS252424] (first compound 0.02 µM, partner dose 5 µM) | 68.5%
COc1ccc(C2=N[C@@H](c3ccc(Cl)cc3)[C@@H](c3ccc(Cl)cc3)N2C(=O)N2CCNC(=O)C2)c(OC(C)C)c1 [Nutlin-3] + Cn1cc(/C=C2\C(=O)Nc3cccnc32)c2ccccc21 [GW441756] (first compound 0.5 µM, partner dose 2 µM) | 86.9%
